In the supplement of paper PMC9446081:
The whole screen tested about 39,000 compounds, of which about 220 (0.56%) showed activity. Some of the results follow.

The compounds below were run on Escherichia coli K-12 BW25113 (assay: relative growth (OD600 normalised to plate interquartile mean) (fraction); higher = less growth inhibition, active = 0.2 or less). Conditions: 50 µM; LB; incubation time: overnight (16-24 h).
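Further: static incubation at 37 °C against the wild-type strain, values averaged over two biological replicates.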

SMILES | relative growth
C[C@H](CO)N1C[C@H](C)[C@H](CN(C)Cc2ccncc2)Oc2ccc(NS(=O)(=O)c3cccs3)cc2C1=O | inactive: 1.02
CC(C)C[C@H](NC(=O)[C@@H](NC(=O)CNC(=O)CN)C(C)C)C(=O)N[C@H](C(=O)N[C@@H](CCC(N)=O)C(=O)N1CCC[C@H]1C(=O)NCC(=O)O)C(C)C | inactive: 0.99
C[C@@H]1CN([C@@H](C)CO)C(=O)c2cccc(NS(=O)(=O)c3ccc(Cl)cc3)c2O[C@H]1CN(C)Cc1ccc(Oc2ccccc2)cc1 | inactive: 1.01
C[C@H](CO)N1C[C@H](C)[C@H](CN(C)C(=O)NC2CCCCC2)Oc2ccc(NC(=O)C3CC3)cc2CC1=O | inactive: 0.989
Cc1ccc(S(=O)(=O)N(C)C[C@@H]2OCCCC[C@H](C)Oc3ccc(NC(=O)CCC(F)(F)F)cc3C(=O)N([C@@H](C)CO)C[C@H]2C)cc1 | inactive: 1.01
C=CCOC(=O)[C@H]1[C@@H]2C(=O)O[C@@H](c3ccccc3)[C@@H](c3ccccc3)N2[C@@H](c2ccc(OCCOC(=O)[C@@H]3C[C@@H]4C(=O)N[C@@H](CCCC[N+](C)(C)C)C(=O)N4[C@@H]3c3ccc(O)cc3)cc2)[C@]12C(=O)Nc1ccccc12 | inactive: 0.988
Nc1nnc(-c2ccno2)o1 | inactive: 0.961
C[C@@H]1O[C@@H](O)[C@H](O)[C@H](O)[C@H]1O | inactive: 0.985
C[C@H]1CCCCO[C@H](CN(C)C(=O)Nc2ccc3c(c2)OCO3)[C@@H](C)CN([C@@H](C)CO)C(=O)c2cc(NS(=O)(=O)c3ccc(F)cc3)ccc2O1 | inactive: 1.01
C[C@H](CO)N1C[C@H](C)[C@@H](CN(C)Cc2ccncc2)Oc2ccc(NS(=O)(=O)c3ccccc3)cc2C1=O | inactive: 0.996
C[C@H]1CCCCO[C@H](CN(C)C(=O)Nc2ccccc2)[C@@H](C)CN([C@@H](C)CO)C(=O)c2cc(NC(=O)Nc3ccc4c(c3)OCO4)ccc2O1 | inactive: 1.05
O=C(C[C@@H]1CC[C@H]2[C@@H](COC[C@@H](O)CN2S(=O)(=O)c2ccc(Cl)cc2)O1)N[C@@H]1CCN(Cc2ccccc2)C1 | inactive: 0.971
Cc1noc(C)c1NC(=O)N(C)C[C@H]1Oc2c(NC(=O)Nc3ccc(C(F)(F)F)cc3)cccc2C(=O)N([C@@H](C)CO)C[C@@H]1C | inactive: 0.873
C[C@@H]1CN([C@@H](C)CO)S(=O)(=O)c2ccc(C#CCN(C)C)cc2O[C@H]1CN(C)C | inactive: 0.981
C=CCC[C@H](Cc1ccc(F)cc1)C(=O)O[C@H](CNC(=O)[C@H](CC=C)CC(=O)N(CCO)Cc1ccccc1)c1ccccc1 | inactive: 1.06
Clc1ccc2c(c1)[C@H]1C=CC[C@@H]1[C@@H](c1ccccc1)N2 | inactive: 1.05
CC(C)NC(=O)Nc1ccc2c(c1)C(=O)N([C@@H](C)CO)C[C@H](C)[C@H](CN(C)Cc1ccc(Oc3ccccc3)cc1)O2 | inactive: 0.999
Cc1noc(C)c1NC(=O)N(C)C[C@@H]1Oc2c(NS(C)(=O)=O)cccc2C(=O)N([C@H](C)CO)C[C@H]1C | inactive: 0.842
O=c1ccc2c[nH][nH]c-2c1 | inactive: 1.02

SMILES | relative growth
C[C@@H]1CN([C@@H](C)CO)C(=O)c2cc(NC(=O)Nc3ccccc3)ccc2O[C@@H](C)CCCCO[C@H]1CN(C)Cc1ccc(Cl)c(Cl)c1 | inactive: 0.996
C[C@@H]1CN([C@H](C)CO)C(=O)c2cc(NC(=O)Nc3ccc(C(F)(F)F)cc3)ccc2O[C@H]1CN(C)Cc1ccccc1 | inactive: 0.955
C[C@H](CO)N1C[C@H](C)[C@H](CN(C)Cc2ccc(Oc3ccccc3)cc2)Oc2ccc(NC(=O)Nc3ccccc3)cc2CC1=O | inactive: 0.979
C[C@H]1CN([C@@H](C)CO)C(=O)c2cccc(NC(=O)Nc3ccc4c(c3)OCO4)c2O[C@@H]1CN(C)S(C)(=O)=O | inactive: 1
CC(C)NC(=O)Nc1ccc2c(c1)CC(=O)N([C@@H](C)CO)C[C@@H](C)[C@H](CN(C)Cc1ccc(Oc3ccccc3)cc1)O2 | inactive: 0.986
COc1ccc(S(=O)(=O)N[C@H]2CC[C@H](CCNC(=O)CN3CCOCC3)O[C@H]2CO)cc1 | inactive: 1
CCS(=O)(=O)Nc1ccc2c(c1)C(=O)N(C)[C@@H]1CC[C@H](CC(=O)NCCCN3CCOCC3)O[C@H]1CO2 | inactive: 1.01
C[C@@H]1CN([C@H](C)CO)C(=O)c2c(c3ccccc3n2C)-c2ccccc2CO[C@H]1CN(C)S(=O)(=O)c1ccc(Cl)cc1 | inactive: 1.04
COc1ccc(CN(C)C[C@H]2OCCCC[C@H](C)Oc3ccc(NC(=O)Nc4ccc(F)cc4)cc3C(=O)N([C@@H](C)CO)C[C@H]2C)cc1 | inactive: 0.974
C[C@H]1CN([C@@H](C)CO)C(=O)Cc2cc(NS(C)(=O)=O)ccc2O[C@@H]1CN(C)Cc1ccc2c(c1)OCO2 | inactive: 0.981
C[C@H](CO)N1C[C@H](C)[C@@H](CN(C)S(C)(=O)=O)OCCCC[C@H](C)Oc2ccc(NC(=O)c3ccncc3)cc2C1=O | inactive: 0.955
C[C@H]1CN([C@@H](C)CO)C(=O)Cc2cc(NC(=O)Cc3cn(C)c4ccccc34)ccc2O[C@@H]1CN(C)Cc1ccc(C(F)(F)F)cc1 | inactive: 1.06
C[C@H](CO)N1C[C@H](C)[C@H](CN(C)CC2CCCCC2)Oc2ccc(NC(=O)Cc3cn(C)c4ccccc34)cc2CC1=O | inactive: 1
COc1ccc(S(=O)(=O)Nc2ccc3c(c2)C(=O)N([C@@H](C)CO)C[C@H](C)[C@H](CN(C)Cc2ccc(Cl)c(Cl)c2)OCCCC[C@@H](C)O3)cc1 | inactive: 1
Cc1ccc(S(=O)(=O)N(C)C[C@@H]2OCCCC[C@@H](C)Oc3ccc(NC(=O)CCC(F)(F)F)cc3C(=O)N([C@@H](C)CO)C[C@@H]2C)cc1 | inactive: 1.01
O=C(C[C@H]1C[C@@H]2c3cc(NC(=O)NC4CCCC4)ccc3O[C@@H]2[C@H](CO)O1)NCc1ccc(-c2ccccc2)cc1 | inactive: 0.983
CC(C)CCN1CCn2c(CO)nnc2C1 | inactive: 1.02
C[C@H](CO)N1C[C@H](C)[C@H](CN(C)Cc2ccc(Cl)c(Cl)c2)Oc2ccc(NS(=O)(=O)c3ccc(Cl)cc3)cc2CC1=O | inactive: 1.01
